Assay results reported in the supplement of paper PMC11417369.
± gives the standard deviation of the averaged measurements. This is one part of the list.

Tested on: PfAP2-G AP2 domain (GST-tagged)
Test: gcPBM binding intensity (ln(normalized median fluorescence intensity)); higher = stronger DNA binding
Summary of the method: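 For binding intensity, the highest Masliner-normalised natural-log median intensity across replicate spots of either probe orientation was taken. Protein bound to the array was stained with Alexa488 anti-GST antibody and scanned at 488 nm. The protein, GST-tagged P. falciparum DNA-binding domains from E. coli at about 25 μg on average, had been applied for 1 h to an Agilent 4 × 180k array of primer-extended double-stranded 36-bp intergenic genomic probes and negative controls.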

Sequence	gcPBM binding intensity (ln)
TTTTAATTGTTTATTTGTACATATGTTTAATTATAT [XGTACX_site571]	10.9 ± 0.44
AATAAATAAATAAATTAATATATATATATATATAGA [CACACA_negctrl_site1661]	9.39 ± 0.14
AAAGGGTTACAAGAGGAACACACAAAAAAATAAATA [CACACA_site8406]	10.3 ± 0.23
TTGTATCTTCATTTTATCAGAAAAAAAAAAAAAAAT [CACACA_negctrl_site775]	9.96 ± 0.4
ATATATATATATAGGGGTACTTAAATTTTACTAACC [XGTACX_site1832]	11.4 ± 0.93
ATTTTATTTATATACACACACATATATATATTATAT [CACACA_site822]	10.1 ± 0.16
AAATAAATAAATATACGTACATATATATAATATATA [XGTACX_site5124]	11.3 ± 0.77
TTTTTTTTGATTTGTTTGCACTTATTTCCACAATAA	10.3 ± 0.2
TTTTTTTTTAATTACATAAAATAAAAATATTTCTAT [CACACA_negctrl_site584]	9.695 ± 0.021
TTAATATGTTTAACCATTTTACATAAATTGATTTGT [CACACA_negctrl_site1100]	10 ± 0.17
TACGTAAATTTTAATACACACTATAGGATATTCTGC [CACACA_site5418]	9.895 ± 0.007
TTTTGCGAAAAAAGGTGTACTGTAAATATATTGAGG [XGTACX_site8941]	11.6 ± 0.95
AGCACCCACCAACACACACACACACCCACCCACCGA [CACACA_site368]	10.3 ± 0.28
TATATATATACATACGTACACACAAATATTAAAATA [CACACA_site1950]	11.8 ± 1.2
TAAAAAAAATAGAAACGTACATAAAAAATAAATAAT [XGTACX_site5796]	11.3 ± 0.6
TATATATTTATATTTACACACAGTTACTATGTAGAT [CACACA_site3292]	9.98 ± 0.19
ATTAAATGATCAAGGTGTACATTAACAAGAACTATA [XGTACX_site7022]	11.5 ± 0.91
TGAATAAAAAAACCTAGTACTTAAATAAGTATATTT [XGTACX_site7690]	10.8 ± 0.43
TCATATAAAACATGCACACATATGTACTCTTATAAA [CACACA_site3748]	11.3 ± 0.7

Sequence	gcPBM binding intensity (ln)
TTTATTAATGGACACACACACACACCCAAAATAAAA [CACACA_site4294]	11 ± 0.77
TATATTTATATATGTTGTACTCTCCAATAATATTCC [XGTACX_site4438]	11.2 ± 0.82
CTCCACAAACAAATCGCACACCCAACCCAACATATA [CACACA_site2650]	10.2 ± 0.13
TATTATAATGACTATAGTACATAATATTATTTATAT [XGTACX_site1977]	10.7 ± 0.5
ATAGAACTGAATAAATCTATAAATAAATATATATAT [GTGCAC_negctrl_site604]	9.545 ± 0.092
TCATACCTACATAAAAAAAGGGAAACAAAATGTCAT [XGTACX_negctrl_site34]	9.87 ± 0.028
TTAAAAAAAAAAAAAAGTACACACTTATAAAATATT [XGTACX_site1630]	11.6 ± 0.91
ACCAATAAATATTTGGTGCATACATATATATATATA	10.1 ± 0.27
AATAAATATAAATACACACCCATATATATATATATA [CACACA_site5436]	10.2 ± 0.47
TTTATTTATTAATACACACACACACCCCCACAAAAT [CACACA_site240]	11.4 ± 0.67
TTTTACATATATATATGTACGAAAATGAAAAGGTCA [XGTACX_site5576]	11 ± 0.67
TATTATAATTTTATATGTACACATATATAAATATAT [XGTACX_site4054]	11.4 ± 1.1
AAAGTTACATTCGACACACACATAACAACTAAATAA [CACACA_site3419]	10.2 ± 0.22
TCAAAGAGTAGAAAGGTGCTTATGAACGAGATAATT	9.87 ± 0.12
CTAAATAAAGTTAACACACACATAATATTTATATGT [CACACA_site6368]	9.905 ± 0.007
TACATAAACATTTATACACACATTAGATATACATAT [CACACA_site6329]	10.02 ± 0.071
AACTAAATTTATAATTGTACATTAAAATATGTATTA [XGTACX_site479]	10.8 ± 0.45
TTTTTTAAAACTTCAAAAAGAGCACTTGAATTTTTT [GTGCAC_negctrl_site455]	9.94 ± 0.19
ACATATACATTTATATGTACTCATTTATCTTATGTA [XGTACX_site6594]	11.3 ± 0.76

Sequence	gcPBM binding intensity (ln)
AAATATTACATACACGCACACATTAATATATTTAAA [CACACA_site2603]	10.4 ± 0.25
ACAAGAACAGAACGTACACACACATATATATATATA [CACACA_site9143]	11.3 ± 0.89
ACCTACACAAGCATTAAACACACAAAAGGGATACTT [CACACA_site8273]	10 ± 0.11
ACCTAATTTTTATATTGTACATAATATAATATATAT [XGTACX_site1715]	10.9 ± 0.52
TATGTGATATATTTATCACACATTATATATATATAT [CACACA_site5103]	10.1 ± 0.73
GATTTTCATATTTTTTGTACTTACATTTTTCTATAC [XGTACX_site6002]	11.2 ± 0.66
ATAAAATCTTAATCAACAAACAAACAAAAAAAAAAT [CACACA_negctrl_site1161]	9.87 ± 0.071
ATAAATATATGGTTTCATTATATTAAATTCAATTTA [CACACA_negctrl_site213]	9.79 ± 0.042
TGTTTATTTTTTTTATGTACTTATTTTTTATTGCAT [XGTACX_site719]	11.5 ± 0.79
ATTCATTTTAATATGGGTACATAAAAATAAAAAGAA [XGTACX_site2801]	11.4 ± 0.96
AATATTTAATTCAACACACATACATATTTATTAAAA [CACACA_site2342]	10 ± 0.28
TAATATGAAAAGTGTACACACGCACAGACAAAAAAA [CACACA_site5594]	11.6 ± 0.95
GCATAAATCAGACACACACACATATATAAATATGTA [CACACA_site7187]	9.91 ± 0.099
TACATTTTTATTTTTACACACATATTTATTTATATA [CACACA_site6609]	10.02 ± 0.021
TATGATGATGAATAACGTACAAAAAAATTAATCACC [XGTACX_site6794]	11.1 ± 0.66
AGATAAAATATATACACACACATAAATACGTACAAA [CACACA_site1086]	11.8 ± 1
AACTTCTTTTTTATAACACACAAAATATATATACAA [CACACA_site282]	10.1 ± 0.18
AACTTATTAAGCCCTCCACATTTCTCTACTACAACT [CACACA_negctrl_site1552]	9.955 ± 0.064
TCTATTTTTCTAATTTGTACATAGCTTTGAGTTAGT [XGTACX_site8977]	10.7 ± 0.39
